Measurements from the RNAGym collection of RNA variant scans (doi:10.7554/elife.90254).
Read counts are not given, so values of variants with three or more changes are uncertain.

B1: LINE1-mini (parent)
chain: GGCAGAGCUCAACACAGCGUGGCAAAGUGGCUGUGGCUAGACUGCC

Variants of: B1
Test: self-cleavage, relative activity (ratio to wild type); higher = more cleavage; in vitro, sequencing; the parent is a self-cleaving ribozyme

Variant | self-cleavage
GGCAGACCUCAAUACAGCGUGGCAAAGUGGCGGUUGCUAGACUGCC [G7C C13U U32G G35U] | 0.15
GGCAGAGCUCAAUACAGCGUGGCAAAGUGGGUGGGGCUAGACUGCC [C13U C31G U34G] | 0.01
GGCAGACCUCAACACAGCGUGGCAAAGUGGCGGUGGCUAGACUGCU [G7C U32G C46U] | 0.04
GGCAGAGCUCAACCUAGCGUGGCAAGGUGGCGGUGGCUAGACUGCC [A14C C15U A26G U32G] | 0.05
GGCAGAGCUCAACACAGUGUGGCAAAGUGGCUGUGGCUAGACCACC [C18U U43C G44A] | 0.03
GGAAGAGCUCAACACAAACUGGCAAAGUGGAUGUGGCUAGACUGCC [C3A G17A C18A G19C C31A] | 0.06
GGCAGAGCUCAACACAGCGUGGCAAAGUGCAUGUGCCUAGACUGUC [G30C C31A G36C C45U] | 0.18
GGCAGAGCUCACCACAGUGUUGCAAAGUAGCUGUGGCUAGACUGCC [A12C C18U G21U G29A] | 0.02
GCCAGAGCUCAACACCACGUGGCAAAGUGGCUGUGGCUAGACUGCC [G2C A16C G17A] | 0.03
GGCAGAUCUCAACACAGCGUUGCAAAGUGGCUGUGGGAAGACUGCC [G7U G21U C37G U38A] | 0
GGCAGAGCUCAAAACACCGGGGCAAAUUGGCAGUCGCUAGACUGCC [C13A G17C U20G G27U U32A G35C] | 0.1
GGCAGAGCUCAACGCAGCGUGUCAAAGAGGCGGUGGCUAGACUGCC [A14G G22U U28A U32G] | 0.05
GGCAGAGCUCAACAAAGCGUGGCAACGUGACUGUGGCUAGACUGAC [C15A A26C G30A C45A] | 0.01
GGUAGAGUUCAACACAGCGUGGCAAAGUGGGAGGGGCUAGACUGCC [C3U C8U C31G U32A U34G] | 0.23
GGCUGAGCUCAGCGCAGCGUGGCAAAGUGGCUGUGGCUAGACUCCC [A4U A12G A14G G44C] | 0.02
GGCACAGCUCAACACAGCGUUGCAAAGUGGCUGUGGCUAGGCUCCC [G5C G21U A41G G44C] | 0.19
GGCAGCGCUCGAAACCGCGUGGCAAAGUCGUUGUGGCUAGACUGCC [A6C A11G C13A A16C G29C C31U] | 0.03
GGCAGAGCUCAACACAGCGUUCAAAAGUGGCUGUGGCUAGACUGCA [G21U G22C C23A C46A] | 0.64
GGCAAAGCUCAACACAUCGUGGCAAGGUGGCUGUGGCUAGACUGCC [G5A G17U A26G] | 0.06

Variant | self-cleavage
GGCAUAGCUAAACACAGCGUGGCAAAGUGGUUGUGGCUAGACUGCC [G5U C10A C31U] | 0
GGCAGAGAUCAACCCAGCGUGGCAAUUUGGCUGUGGCUAGACUUCC [C8A A14C A26U G27U G44U] | 0.12
GGCCGAUCUAAAGACACCGUGGCAAAGUGGCGGUGGCUAGACAGCC [A4C G7U C10A C13G G17C U32G U43A] | 0
GGCAGAGGUCACCACAGCGUGACAAAAUGGCUUUGGCUAGACUGCC [C8G A12C G22A G27A G33U] | 0.01
GGCAGAGCUCAACACAGCGUGCCAAAUUGGCUGUGGCUAGAAUGCC [G22C G27U C42A] | 0.04
GGCAGAGCUCAACACAGCGUGGCAAAAUGGCUGUGACUAGACAGCC [G27A G36A U43A] | 0.06
GGCAGAGCUAAACACAGCGUGGCAAAGUGGCUGUGCCUAGCCUGCG [C10A G36C A41C C46G] | 0.02
GGCAGAGCUCAACACAGCGUUGCAAAGGGGCUGUGGCUAUACUGCC [G21U U28G G40U] | 0.08
GGCAGAGCUCACCACAGCGUGGCCAUGUGGCUGUGGCUAGACUGCA [A12C A24C A26U C46A] | 0.01
GGCAGAGCUCAACACAGCGUGGCAAAGUCGCUGUGGCUAAACUGCU [G29C G40A C46U] | 0.18
GGCAGAGCUAAACACUGCGUGGCAAAGUGGCUAUGGCUAGACUAUC [C10A A16U G33A G44A C45U] | 0.02
GGCAGCGCUCAGCACAGCGUGGCAUCCUGGCUGUGGCUAGACUGCC [A6C A12G A25U A26C G27C] | 0.01
CGCAGUGCUAAACACACCGUUGCAAAGUGGCCGUGGCUAGACUGCC [G1C A6U C10A G17C G21U U32C] | 0.01
GGCAGAGCGCAAGACAGCGUGGCAAAGUGGCUGUGGAUAGACUGCC [U9G C13G C37A] | 0.17
GGCAGAGCUCAACACAGCGUGGCAAAGUGGCUGUGGCUAUACCGGC [G40U U43C C45G] | 0.4
GGCCGAGCUCAACACAGCGUGGCAAAGUAGCUGUGGCUAAACUGCC [A4C G29A G40A] | 0.65
GGCAGAGCUAAACACAGCGUGGCAAAGUGGCUGUGGUCAGCCCGCC [C10A C37U U38C A41C U43C] | 0.04
GGCAGAACUCAACAGAGCGUGGCAAAGUCGCUGUUGCUAGACUGCU [G7A C15G G29C G35U C46U] | 0.02
GGCAGAGCUCAACAUAGCGUGGCAAAUUGGCUGUGGCUAGACUCCC [C15U G27U G44C] | 0.18

Variant | self-cleavage
GGCAGUGCUCAACAAAGCGUGGCAAAGUCGCUGUGGCUAGACUGCC [A6U C15A G29C] | 0.53
GGCAGAGCUCAAUAAAGCGUCGCAAAGUCGCUGUCGUUAGACUGCC [C13U C15A G21C G29C G35C C37U] | 0.05
GGCAGUGCUCAACACAGCUUGGCAAAGUGGCUGUGGCUGGACUGCC [A6U G19U A39G] | 0.16
GGCGGAGCUCAAUACAGCGUGGCAAAGUGGGUGUGGCUAGCCUGCC [A4G C13U C31G A41C] | 0.04
GGCAGGGCUCAACACAGCGUGGAAAAGUGCCUGUGGCUAGACUGCC [A6G C23A G30C] | 0.12
GGCAGAGCUGAACACAGCGUGGCAACGUGGCAGUGGCUAGACUGCC [C10G A26C U32A] | 0.03
AGCAGAUCUCAACACAGCGCGGCAAAGUGGCUGUGGCUAGACUGCU [G1A G7U U20C C46U] | 0.05
GGCAGAGCUCAACACAGCGUGGCAAAGUGGCGGUGGCUCGACUCCA [U32G A39C G44C C46A] | 0.03
GGCAGAGCUCAUCACAGAGUGGCAAAGUAGCUGUGGCUAGACUGCC [A12U C18A G29A] | 0.06
GUCAGAGCUCAACGCAGCGUGGCAAAGUAGCUGUGUCUAGACCGCC [G2U A14G G29A G36U U43C] | 0.03
GGCAGAGCUCAACACAGCGUGGCAAAGUAGCUGUGACUAGACUGUC [G29A G36A C45U] | 0.18
GGCAGAGCUCAACACAGCGGGACAAAGUAGCUGUGGCUAGACUGCC [U20G G22A G29A] | 0.24
GGCAGGGCUCAACACUGUGUGGCAAAGUGGCUGUGGCUAGACUGCC [A6G A16U C18U] | 0.06
GGCAGAGCUCACCACACCGUAGCAAAGUGGCUGUGGCUAGACUGCC [A12C G17C G21A] | 0
GCCCGAGCUCAACACAGCGUGGCAGAGUGGCUGUGGCUAGACUGCC [G2C A4C A25G] | 0.07
GGCCGAGCUCAACACAGCGUUGCCAAGUGGCUGUGGCUAGACCGCC [A4C G21U A24C U43C] | 0.05
GGCAGAGCUCAACCCAGCGUGGAAAUCUGGCGGUGGCUAGGCUGUC [A14C C23A A26U G27C U32G A41G C45U] | 0.02
GGCAGAGCUCAACACAGCGUGGCAGAGUGGCUGUGCCUAGAGUCCC [A25G G36C C42G G44C] | 0.04
